Reference: publication PMC4336329 (PLoS ONE, 2015)
Screen size: about 310,000 compounds; about 14,000 (4.5%) showed an effect of 50% or more. The effect is printed as a negative number. The list shows a part of the results.

target: human ether-à-go-go-related gene (hERG) potassium channel (human, UniProt Q12809); assay: primary screen, population patch clamp on CHO cells stably expressing hERG
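Note: peak tail current of the secondary pulse compared with the same well before compound.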

Chain of human ether-à-go-go-related gene (hERG) potassium channel (Q12809 whole entry, looked up): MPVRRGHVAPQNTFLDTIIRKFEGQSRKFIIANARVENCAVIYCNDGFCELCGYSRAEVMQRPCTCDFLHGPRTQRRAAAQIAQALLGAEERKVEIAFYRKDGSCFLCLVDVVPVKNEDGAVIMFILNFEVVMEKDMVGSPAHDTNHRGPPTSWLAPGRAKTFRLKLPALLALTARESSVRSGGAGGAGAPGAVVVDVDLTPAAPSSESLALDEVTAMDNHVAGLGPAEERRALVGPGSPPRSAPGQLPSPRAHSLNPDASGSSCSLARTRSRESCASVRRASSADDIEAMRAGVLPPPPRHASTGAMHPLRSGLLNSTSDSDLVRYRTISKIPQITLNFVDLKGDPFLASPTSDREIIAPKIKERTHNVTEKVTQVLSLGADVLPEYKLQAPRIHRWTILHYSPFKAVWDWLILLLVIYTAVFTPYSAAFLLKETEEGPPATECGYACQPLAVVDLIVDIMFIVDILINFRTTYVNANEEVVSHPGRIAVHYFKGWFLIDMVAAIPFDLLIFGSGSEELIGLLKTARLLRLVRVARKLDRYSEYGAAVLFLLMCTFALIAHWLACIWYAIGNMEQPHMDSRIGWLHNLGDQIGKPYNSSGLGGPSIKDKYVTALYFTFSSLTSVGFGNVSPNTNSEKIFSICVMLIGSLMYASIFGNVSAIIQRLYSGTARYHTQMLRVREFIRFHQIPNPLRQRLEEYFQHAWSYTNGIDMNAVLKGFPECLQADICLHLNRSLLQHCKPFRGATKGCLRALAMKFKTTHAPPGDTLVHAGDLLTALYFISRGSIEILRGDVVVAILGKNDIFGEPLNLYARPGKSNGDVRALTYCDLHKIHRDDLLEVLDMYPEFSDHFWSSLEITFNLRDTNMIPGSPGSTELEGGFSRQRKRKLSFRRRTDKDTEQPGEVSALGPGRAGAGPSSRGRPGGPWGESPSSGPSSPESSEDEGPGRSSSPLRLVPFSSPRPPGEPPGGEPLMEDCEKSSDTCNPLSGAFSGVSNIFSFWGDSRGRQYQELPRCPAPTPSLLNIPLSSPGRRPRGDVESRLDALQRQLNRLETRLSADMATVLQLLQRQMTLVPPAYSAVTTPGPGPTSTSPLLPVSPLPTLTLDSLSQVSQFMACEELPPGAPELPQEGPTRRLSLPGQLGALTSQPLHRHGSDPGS

SMILES | hERG current change (%, negative = inhibition) at 10uM [%]
CCn1c(CCn2ccnc2C)n[nH]c1=S | -1.48
CS(=O)(=O)c1ccc(NC(=O)c2ccccc2-n2cnnn2)cc1 | 4.9
CCCOc1ccc(/C=N/Nc2cccc([N+](=O)[O-])c2)c(O)c1 | 7.96
CN(CC(=O)Nc1ccccc1C(F)(F)F)C(=O)c1ccccc1Sc1ccccc1C#N | -9.93
C[N+]1(C)C2CCC1CC(OC(=O)c1c[nH]c3ccccc13)C2.[I-] (stereo not drawn) | 10.2
COc1ccc(NC2CCCN(C(=O)CCc3cccc(Cl)c3)C2)cc1 (stereo not drawn) | -40.1
O=C(O)c1cccc2c1/C(=N/O)c1ccccc1-2 | 16.6
CC1=CC2=C(OC1N(C)C)c1cccc3cccc(c13)C2=O (stereo not drawn) | -6.65
CC(C)c1ccc(NC(=O)N2CCCC2C(=O)Nc2ccc(-n3cnnn3)cc2)cc1 (stereo not drawn) | -61.8
CCc1ccc(/C=C2\SC(=S)N(CCCC(=O)Nc3ccccn3)C2=O)cc1 | 12.7
COc1ccccc1NC=C1C(=O)OC2(CCCCC2)OC1=O | -7.24
CC(C)c1nc(SCC(=O)NC2CCCC2)c2ccccc2n1 | -5.67
O=C(CNC(=S)N(CCCN1CCOCC1)Cc1cccs1)N1CCCCCC1 | -41.4
Cc1ccc2oc(C(=O)NCc3ncc(C)[nH]3)c(C)c2c1 | -3.93
O=C(c1ccc(-c2ccccc2)c(F)c1)C1CCCN(C(=O)c2cncs2)C1 (stereo not drawn) | -18.4
Cc1cc(NC(=O)Nc2cccc(Cl)c2)n(-c2ccccn2)n1 | 23.7
c1ccc(SSc2ccccc2)cc1 | 16.7
Cc1cc(C(=O)NNc2ccccc2F)no1 | 14.5
O=C(CN1C(=O)C2CC=CCC2C1=O)NCC(=O)Nc1ccc(F)c(F)c1 (stereo not drawn) | 3.28
COc1ccc(S(=O)(=O)N2CCCC(C(=O)NC3CCCCC3)C2)cc1 (stereo not drawn) | 7.18
CN1CCN(C2=Cc3cc(Cl)ccc3Sc3cc(F)ccc32)CC1.CS(=O)(=O)O | 0.951
COCCn1nnnc1CN1CCN2CCCC2C1.Cl (stereo not drawn) | 3.16

SMILES | hERG current change (%, negative = inhibition) at 10uM [%]
COCCn1c(=NC(=O)/C=C/c2ccccc2)sc2cc(NC(C)=O)ccc21 | -14.4
O=C(NCCOc1ccccc1)C(=O)NCC1CCCO1 (stereo not drawn) | 13.8
Cc1nn(-c2ccccc2)c(C)c1/C=C/C(=O)OCC(=O)Nc1ncc(Cl)cc1Cl | -16.9
COc1ccc(C)cc1NC(=O)c1cc(S(=O)(=O)N2CCOCC2)cn1C | -3.05
CCOC(=O)C(Cc1ccccc1)NS(=O)(=O)c1ccc(NC(C)=O)cc1 (stereo not drawn) | 11.6
Cc1ccc2nc(NCc3ccccc3)[nH]c2c1 | -36.8
CC(C(=O)N1CCC2(CC1)OCCO2)C1Sc2ccccc2NC1=O (stereo not drawn) | 6.9
COc1ccc(C[C@@H]2CN3C(=NC[C@@H]3Cc3ccc(O)cc3)N2C[C@H](C)NC(=O)CCC2CCCCC2)cc1 | -80.6
COc1ccc(Br)cc1/C=N/N1C(=O)CSC1=S | 17.3
CN(C)C(=O)c1nc2ccc(Cl)cn2c1CN1CCCC(OCc2ccccc2)C1 (stereo not drawn) | -36.2
Cc1occc1-c1n[nH]c(=S)n1C | 12.9
Cc1ccccc1SCC(=O)N/N=C/c1ccc(F)cc1 | 8.01
COc1cc(/C=N/Nc2nc3ccccc3[nH]2)cc(Br)c1OCC(=O)N(C)C | 2.18
Cc1noc(C(C)C)c1C(=O)Nc1ccc(-c2nnc3n2CCCCC3)cc1 | -4.21
C=CCn1c(CNc2ccccc2)nnc1SCC(=O)N/N=C/c1ccccc1O | -16.5
CC(C)(C)[C@H]1C=C(C(=O)NCc2ccccc2)O[C@@H](OCCCCO)C1 | 0.64
CCn1c(C)nc2cc(C(=O)N/N=C/c3ccccc3C)ccc21 | -12.8
Clc1ccccc1CSc1nnc(/C=C/c2ccccc2)o1 | 11.5
Cc1ccc(N(Cc2cc3ccccc3[nH]c2=O)S(=O)(=O)c2ccccc2)cc1 | -2.77
OCCC1CN(Cc2ccccc2OC2CCCC2)CCN1Cc1ccsc1 (stereo not drawn) | -68.7
Cc1ccc(NC(=O)COC(=O)CNC(=O)c2ccc(Br)cc2)c(C)c1 | -14.9
CN(C)/C=C/C(=O)c1ccc(Cl)s1 | -9.03

SMILES | hERG current change (%, negative = inhibition) at 10uM [%]
O=C(CSc1nnc2ccccn12)c1ccc(OC(F)F)cc1OC(F)F | -35.1
O=C1CCC(=O)N1c1ccccc1-c1ccccc1 | 13.4
Cc1nc(-c2ccc(NC(=O)C(C)(C)C)cc2)c(-c2ccccc2)o1 | 20.6
COC(=O)CN1C(=O)[C@H]2[C@@H](c3ccc(C)o3)N3C(=O)CN(Cc4ccccc4)C(=O)[C@@]3(C)[C@H]2C1=O | 5.37
COc1cc(C(=O)NCC(c2cccs2)N2CCOCC2)c([N+](=O)[O-])cc1OC (stereo not drawn) | 8.17
CN(Cc1ccccc1)C(=O)COC(=O)c1cc(S(=O)(=O)N(C)C)ccc1N1CCCC1 | 1.93
CC1CN(C(=O)N2CCCCC2)CCN1C(=O)N1CCCCC1 (stereo not drawn) | 16.9
Cc1ccc(N(CC(=O)Nc2cc(Cl)ccc2Oc2ccccc2)S(C)(=O)=O)c(C)c1 | 7.88
O=C(COc1cccc(NC(=O)c2ccco2)c1)c1ccccc1 | -19.8
CC(=O)C1=C(O)CC(C)(C)CC1=NCCc1nc2ccccc2[nH]1 | 7.96
C#CCOCCOCCOCCNc1nc(N2CCOCC2)nc(N2CCN(C(=O)[C@H](Cc3cc4ccccc4[nH]3)n3cc([C@@H](N)Cc4ccc(O)cc4)nn3)CC2)n1.Cl | 6.43
COc1ccc(/C=N/NC(=O)c2nnn(-c3nonc3N)c2-c2cccc(OC)c2)cc1 | -43.8
CCC(C)(C)n1nnnc1C(c1ccc(OC)c(OC)c1)N1CCN(c2ccc(OC)cc2)CC1.Cl (stereo not drawn) | -15.9
NC(=O)CC(NC(=O)Cc1cccc2ccccc12)c1ccc(NC2CCCCC2)c([N+](=O)[O-])c1 (stereo not drawn) | 1.98
CCN(CC(=O)NC1CCS(=O)(=O)C1)S(=O)(=O)c1cc(C)ccc1C (stereo not drawn) | 10.2
Cc1ccc(S(=O)(=O)/N=C2/NC(=O)/C(=C/c3cccnc3)S2)cc1 | -10.4
COc1cccc(-n2c([S-])c(C(=O)Nc3ccc(C(F)(F)F)cc3)[n+]3ccccc23)c1 | 25.9
CC(C)(C)OC(=O)N[C@@H](C(=O)OC(C)(C)C)c1ccc2ccccc2c1 | 6.86
CC1(C)NC(=O)N(CC(=O)OCC(=O)Nc2cc(S(=O)(=O)N3CCCCC3)ccc2Cl)C1=O | -7.39
O=C(COc1ccc(Cl)cc1)N1CCN(c2ccc([N+](=O)[O-])c(N3CCOCC3)c2)CC1 | -71.5
COc1ccc(OC)c(C(c2nnnn2C2CCCC2)N2CCN(c3ccccc3F)CC2)c1.Cl (stereo not drawn) | -10.9
CNC(=S)N/N=C/c1cn(CCOc2ccccc2OC)c2ccccc12 | -2.61

SMILES | hERG current change (%, negative = inhibition) at 10uM [%]
O=C(/C=C/NCc1cccnc1)c1ccc(-c2ccccc2)cc1 | 2.96
Brc1ccc(CSc2ncn[nH]2)cc1 | 18.6
CCOC(=O)/C=C1\SCC(=O)N1CC(=O)NC(C)c1ccc(F)cc1 (stereo not drawn) | -19.3
CC(=O)OC1=Cc2c(ccc3ccc(=O)oc23)OC1(C)C | 3.94
O=C(Nc1ccc2oc(-c3cccnc3)nc2c1)c1ccco1 | -33.2
COC(=O)C1=C(C)N(CC2CCCO2)C(=O)/C1=C\c1ccc(O)cc1 (stereo not drawn) | 4.33
CCC(CO)NCc1ccc(Br)cc1.Cl (stereo not drawn) | -2.19
COc1ccc(C(C)=O)cc1COC(=O)c1cccnc1Cl | 8.32
Cc1ccc(-n2c(C)nc3cc(Cl)ccc3c2=O)nc1 | 15.2
COc1ccc2c(Cl)c(C(=O)NC3CCS(=O)(=O)C3)sc2c1 (stereo not drawn) | -4.73
COc1ccc(/C=C2\SC(N)=NC2=O)cc1 | 13.9
CCc1ccc(/C=C2\SC(N3CCOCC3)=NC2=O)cc1 | -35.1
CCN(CC)C1=CC2=CC(=C(C#N)C#N)CCC2CC1 (stereo not drawn) | 5.24
CCCCNS(=O)(=O)c1ccc2nc(SCC(=O)Nc3ccccc3)[nH]c2c1 | -9.76
O=C(Cc1ccc(F)cc1)NC1CCCCCC1 | 19.6
CCOc1ccc(NC(=S)Nc2cc(-c3ccccc3)[nH]n2)cc1 | 12.1
O=C(COC(=O)c1ccc(Sc2ccccc2)c([N+](=O)[O-])c1)NC1CCS(=O)(=O)C1 (stereo not drawn) | -83.3
O=C(O)c1ccc(Cn2cnc3sc4c(c3c2=O)CCCC4)cc1 | 18.2
Brc1ccc(NC2=Nc3ccccc3CC2)cc1 | -8.56
Cn1c(SCC(=O)Nc2ccccc2F)nnc1-c1ccc(S(=O)(=O)N2CCOCC2)cc1 | -29
Cc1cc(C(=O)COC(=O)C2COc3ccccc3O2)c(C)n1CC1CCCO1 (stereo not drawn) | -9.57
